Some of the results follow.
test system: PF3D7_0420300 AP2 domain 1 (GST-tagged); assay: gcPBM binding intensity (ln(normalized median fluorescence intensity)); higher = stronger DNA binding
Method in brief: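 Binding of GST-tagged P. falciparum DNA-binding domains, expressed in E. coli and used at about 25 μg on average, was carried out for 1 h in 1× PBS containing 1% milk, 0.2 mg/ml BSA, 0.5% salmon testes DNA and 0.03% Triton X-100. The target was an Agilent 4 × 180k array of primer-extended double-stranded 36-bp intergenic genomic probes plus negative controls, read with Alexa488 anti-GST antibody at 488 nm. Binding intensity is the highest Masliner-normalised natural-log median intensity across replicate spots of either probe orientation.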

In order of rising “gcPBM binding intensity (ln)” value:
1. AATAGTACAAAAAAAAAAAAAAAAAAAAAAAAAAAA [CACACA_negctrl_site1376]  8.56
2. AACTTAAAAAAAAAAAAAAAAAAAAAAAAAAAAAAA [GTGCAC_negctrl_site34]  8.64
3. TTATATATATATATATAATATATATATATTTAAATA [XGTACX_negctrl_site453]  8.67
4. AAGAAAAATGTGTTTTTTTTTTTTTTTTTTTTCAAT [TGCATGCA_negctrl_site404]  8.77
5. TTTTTTTTATCAAATTGTACATATACAAAGGTGATC [XGTACX_site8054]  8.86
6. TTTTCTTTTTTGAACTGTACGCGTAAATTTAAAAAG [XGTACX_site882]  8.86
7. TATTTGCAATGCAAATGTACATGAATTTTTTTAATG [XGTACX_site7474]  8.95
8. AGAAATCATCTGAATTGTACTAACAATTTTTTTTAA [XGTACX_site6191]  8.96
9. TATAACTATAAAAGGAGTACTATATATATATATATA [XGTACX_site1388]  9
10. TAGATATGTCTAAAAAGTACTTTCTATAACAATTCT [XGTACX_site6678]  9.01
11. AAATATTTTTTAATGTGTACATAGAACATATATATA [XGTACX_site3136]  9.01
12. ATAATATATATATTATGTACATATAAATTTTTTTTT [XGTACX_site5826]  9.09
13. TCATATTATTATATATGTACATACCAATATATTATA [XGTACX_site2988]  9.1
14. AGGGGCGAAACAAAGGTGCTTTTATAAAATATGTAA  9.11
15. TATCACATATTATGATGTACAAAGATTCTGACTAAT [XGTACX_site2770]  9.12
16. TAGATAAAATTAAAATGTACAAACCTTTTCCCTTAT [XGTACX_site1136]  9.13
17. AAGAATATAATCTTCACACATATATATATATATATA [CACACA_site5927]  9.13
18. ACCTAATATTATTAAACATGCACATTTGCATAAATA [TGCATGCA_site870]  9.13
19. ATTTTATTTTTTAATAGTACTCATTTTTTATGTGAA [XGTACX_site5494]  9.15
20. CTTTTTTTTTTAAATAGTACTTTCTCGTATACTCAT [XGTACX_site1842]  9.17
21. TCTACAAAATTATCATGTACATATTATTATAATTAT [XGTACX_site6585]  9.19
22. AATATATTTATATATAGTACTTTTATAATATCGTTT [XGTACX_site6658]  9.21
23. ATATATATATATATATGTACTTATTTATTTTATATA [XGTACX_site8810]  9.22
24. GATATGATTAACTTATGTTATTCTTGATGATTACGT [CACACA_negctrl_site354]  9.23
25. TTTCCTTATAAAAATACACACAAACTTTCATTAAAA [CACACA_site5953]  9.24
26. TAAAAATATATTATATGTACGTATAACAATGTATGA [XGTACX_site8606]  9.24
27. CTTAAATCTACTATTTGTACATATTTTATTATTAAA [XGTACX_site6151]  9.25
28. TATAGATGTGGTTTATGTACATACTATAAAAAATCA [XGTACX_site1400]  9.25
29. TACGTTATATACAACTGTACTTGGATAATTATTAAC [XGTACX_site5614]  9.26
30. TATATATATATAAAGGTGCATATCTTTACGTATGTC [GTGCAC_site9665]  9.31
31. TGTGAAATAAAATTTATACACACTTGCTAAATGATC [CACACA_site181]  9.31
32. TTTTTTTATTTTTGTTGTACTTATAATTCTGTAAAA [XGTACX_site7344]  9.32
33. AACACCAAACAAAGGTGTACATATAGGAAAAAATCT [XGTACX_site1006]  9.38
34. TTTTTTATTTATTGTTATACATCTTACTACTTATAA [GTGCAC_negctrl_site381]  9.38
35. AATACACATAATACATGTACTCACATTGTTATAACA [XGTACX_site4129]  9.38
36. AAAAAAAAAAAAAAAACACACATGTATAATATAATA [CACACA_site2209]  9.38
37. TACAAATTAATATGTACACACAAATATAAATATGTA [CACACA_site7016]  9.43
38. ATATATATATATGATACATGCATATATTTTTTCTTC [TGCATGCA_site216]  9.44
39. AAGTTTTTTTCTTTTTTTCTCTCTTTTTTTTTTTTT [XGTACX_negctrl_site613]  9.46
40. CAAAATGAAAGGAAAAGTACATTTAAATGAATAAAT [XGTACX_site8241]  9.46
41. AGAGGGGAAAACATGATGCACTAGTATAACCAAGAA  9.55
42. TACACCTGCACGATTGCACACAAATATGTTTTGAAG [CACACA_site8656]  9.58
43. ACTTATTTATTTTTAGTGCATTTAGTTTTATTTTAT  9.63
44. TTATTATTAAAACACACACACAAAAAAAAAAAAAAA [CACACA_site1480]  9.67
45. CCCAATAATTAAACAACACACATATATATCTGTAAT [CACACA_site5667]  9.71
46. TTTTTTAAAAAACAAACACACACGTAGAAAAAAAAA [CACACA_site826]  9.71
47. AAATAATTCAAAAAAACACACAAATTACAAAATAAA [CACACA_site269]  9.72
48. TATATACCTATATATACACACAAATACATAAGCTTC [CACACA_site1369]  9.75
49. TAAAAAGAAAAAAAGAGTACAAACAAAATAATAATT [XGTACX_site6071]  9.76
50. AGAGAAGAAAACAAAACACACACATATATCTTAATA [CACACA_site8699]  9.83
51. AGTATACACAAACACACACACACAAAAAAAAAAAAA [CACACA_site8036]  9.86
52. TAATTATATGGATACACACACATACATTTACATAAC [CACACA_site5744]  9.91
53. TATTATAATAAAATATGTACACACATACACACATAT [XGTACX_site2360]  9.92
54. AAGGACAACAAACAAACACACACAAAAAAAAAATAA [CACACA_site9263]  9.99
55. ATAAAATGGGCAAACACACACAAAAAAAAGATATAT [CACACA_site1648]  10
56. TATAAATATAAATACACACACACACGCCAAAGCGTA [CACACA_site6181]  10.1
57. TACACGCAGAAACACACACACACACCCATATATATA [CACACA_site637]  10.3

From the supplement of paper PMC11417369
